# Reference: patent US11096942B2, “Heterocyclic compounds and uses thereof” (Celgene CAR LLC, priority 2010, dated 2021)
# What was measured:
# [1] = target: T1, EGFR T790M/L858R (Homo sapiens (Human), UniProt P00533, L858R/T790M); format: binding; details: whole protein MS analysis
# [2] = target: T1, EGFR T790M/L858R; experiment: Omnia assay, EGFR (T790M/L858R) active enzyme; details: biochemical, WT EGFR vs EGFR T790M/L858R
# Protocol: Kinase reactions were started with the addition of 45 μL of the ATP/Tyr-Sox peptide substrate mix and monitored every 71 seconds for 60 minutes at λex360/λem485 in a Synergy^4 plate reader from BioTek (Winooski, Vt.).
Compound,covalent modification of EGFR T790M/L858R [1],Ratio WT/mutant [2]
"C=CC(=O)Nc1cccc(Oc2nc(Nc3ccc(N4CCN(C(=O)CO)CC4)cc3OC)ncc2Cl)c1 [Compound I-3, N-(3-(5-chloro-2-(4-(4-(2-hydroxyacetyl)piperazin-1-yl)-2-methoxyphenylamino)pyrimidin-4-yloxy)phenyl)acrylamide]",covalently modify the protein,>5
"C=CC(=O)Nc1cccc(Nc2nc(Nc3ccc(N4CCN(C(=O)CO)CC4)cc3OC)ncc2C(F)(F)F)c1 [Compound I-6, N-(3-(2-(4-(4-(2-hydroxyacetyl)piperazin-1-yl)-2-methoxyphenylamino)-5-(trifluoromethyl)pyrimidin-4-ylamino)phenyl)acrylamide]",–,>5
"C=CC(=O)Nc1cccc(Nc2nc(Nc3ccc(N4CCN(C(=O)CO)CC4)cc3OC)ncc2Cl)c1 [Compound I-12, N-(3-(5-chloro-2-(4-(4-(2-hydroxyacetyl)piperazin-1-yl)-2-methoxyphenylamino)pyrimidin-4-ylamino)phenyl)acrylamide]",–,>15
"C=CC(=O)Nc1cccc(Nc2nc(Nc3ccc(N4CCCN(C(=O)C(F)(F)F)CC4)cc3OC)ncc2C(F)(F)F)c1 [Compound I-19, N-(3-(2-(2-methoxy-4-(4-(2,2,2-trifluoroacetyl)-1,4-diazepan-1-yl)phenylamino)-5-(trifluoromethyl)pyrimidin-4-ylamino)phenyl)acrylamide]",–,>50
"C=CC(=O)Nc1cccc(Nc2nc(Nc3ccc(N4CCN(S(C)(=O)=O)CC4)cc3OC)ncc2Cl)c1 [Compound I-41, N-(3-(5-chloro-2-(2-methoxy-4-(4-(methylsulfonyl)piperazin-1-yl)phenylamino)pyrimidin-4-ylamino)phenyl)acrylamide]",–,>20
"C=CC(=O)Nc1cccc(Nc2nc(Nc3ccc(N4CCN(C(=O)OC)CC4)cc3OC)ncc2C(F)(F)F)c1 [Compound I-29, methyl 4-(4-(4-(3-acrylamidophenylamino)-5-(trifluoromethyl)pyrimidin-2-ylamino)-3-methoxyphenyl)piperazine-1-carboxylate]",–,>30
"C=CC(=O)Nc1cccc(Nc2nc(Nc3ccc(N4CCS(=O)(=O)CC4)cc3OC)ncc2C(F)(F)F)c1 [Compound I-49, N-(3-(2-(2-methoxy-4,4-dioxo-4-thiomorpholinophenylamino)-5-(trifluoromethyl)pyrimidin-4-ylamino)phenyl)acrylamide]",–,>1
"C=CC(=O)Nc1cccc(Nc2nc(Nc3ccc(N4CCN(C(C)=O)CC4)cc3OC(F)(F)F)ncc2C(F)(F)F)c1 [Compound I-33, N-(3-(2-(4-(4-acetylpiperazin-1-yl)-2-(trifluoromethoxy)phenylamino)-5-(trifluoromethyl)pyrimidin-4-ylamino)phenyl)acrylamide]",–,>10
"C=CC(=O)Nc1cccc(Nc2nc(Nc3ccc(N4CCN(C(C)=O)[C@H](C(=O)OC)C4)cc3OC)ncc2C(F)(F)F)c1 [Compound I-48, (S)-methyl 1-acetyl-4-(4-(4-(3-acrylamidophenylamino)-5-(trifluoromethyl)pyrimidin-2-ylamino)-3-methoxyphenyl)piperazine-2-carboxylate]",–,>25

# Continued, values first:
covalent modification of EGFR T790M/L858R [1],Ratio WT/mutant [2],Compound
covalently modify the protein,>40,"C=CC(=O)Nc1cccc(Oc2nc(Nc3ccc(N4CCOCC4)cc3OC)ncc2C(F)(F)F)c1 [Compound I-1, N-(3-(2-(2-methoxy-4-morpholinophenylamino)-5-(trifluoromethyl)pyrimidin-4-yloxy)phenyl)acrylamide]"
–,>5,"C=CC(=O)Nc1cccc(Oc2nc(Nc3ccc(N4CCN(C(C)=O)CC4)cc3OC)ncc2Cl)c1 [Compound I-9, N-(3-(2-(4-(4-acetylpiperazin-1-yl)-2-methoxyphenylamino)-5-chloropyrimidin-4-yloxy)phenyl)acrylamide]"
–,>25,"C=CC(=O)Nc1cccc(Oc2nc(Nc3ccc(N4CCOCC4)cc3OC)ncc2Cl)c1 [Compound I-5, N-(3-(5-chloro-2-(2-methoxy-4-morpholinophenylamino)pyrimidin-4-yloxy)phenyl)acrylamide]"
–,>5,"C=CC(=O)Nc1cccc(Oc2nc(Nc3ccc(N4CCN(S(N)(=O)=O)CC4)cc3OC)ncc2C(F)(F)F)c1 [Compound I-27, N-(3-(2-(2-methoxy-4-(4-sulfamoylpiperazin-1-yl)phenylamino)-5-(trifluoromethyl)pyrimidin-4-yloxy)phenyl)acrylamide]"
–,>35,"C=CC(=O)Nc1cccc(Oc2nc(Nc3ccc(N4CCOCC4)cc3OC(F)F)ncc2C(F)(F)F)c1 [Compound I-13, N-(3-(2-(2-(difluoromethoxy)-4-morpholinophenylamino)-5-(trifluoromethyl)pyrimidin-4-yloxy)phenyl)acrylamide]"
